# Test results as given in the supplement of paper PMC8728848.
# The other results are listed elsewhere or left out.
# B1: Gal 3 (Homo sapiens), P17931 (protein)
# chain: MADNFSLHDALSGSGNPNPQGWPGAWGNQPAGAGGYPGASYPGAYPGQAPPGAYPGQAPPGAYHGAPGAYPGAPAPGVYPGPPSGPGAYPSSGQPSAPGAYPATGPYGAPAGPLIVPYNLPLPGGVVPRMLITILGTVKPNANILDFQRGNDVAFHFNPRFNENNRRVIVCNTLLDNNWGREERQSVFPFESGKPFKIQVLVEPDHFKVAVNDAHLLQYNHRVKKLNEISKLGISGDIDLTSASYTMI
# Assays:
# Assay in all cases: glycan array binding signal (z-score within array); higher = stronger binding
# Settings in all cases: glycan notation: IUPAC condensed, linker removed; mutation: K176L
# [1] = target: Gal(b1-4)GlcNAc(a1-6)Gal(b1-4)GlcNAc
# Summary of the method: (§1)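 The binding signal is a Z-score computed within each array. Data were drawn from 3228 arrays in the Consortium for Functional Glycomics database, restricted to those with a known protein sequence. Scores were averaged over arrays of the same protein sequence at different concentrations or buffers, and over linkers, and negative values can be taken as non-binding.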
# [2] = target: Gal(b1-4)GlcNAc(b1-2)Man(a1-3)Man(b1-4)GlcNAc(b1-4)GlcNAc
# Summary of the method: as §1
# [3] = target: Gal(b1-4)GlcNAc(b1-2)Man(a1-3)[Gal(b1-4)GlcNAc(b1-2)Man(a1-6)]Man(b1-4)GlcNAc(b1-4)GlcNAc
# Summary of the method: as §1
# [4] = target: Gal(b1-4)GlcNAc(b1-2)Man(a1-3)[Gal(b1-4)GlcNAc(b1-2)Man(a1-6)]Man(b1-4)GlcNAc(b1-4)[Fuc(a1-6)]GlcNAc
# Summary of the method: as §1
# [5] = target: Gal(b1-4)GlcNAc(b1-2)Man(a1-3)[GlcNAc(b1-2)Man(a1-6)]Man(b1-4)GlcNAc(b1-4)GlcNAc
# Summary of the method: as §1
# [6] = target: Gal(b1-4)GlcNAc(b1-2)Man(a1-3)[Man(a1-6)]Man(b1-4)GlcNAc(b1-4)GlcNAc
# Summary of the method: as §1
# [7] = target: Gal(b1-4)GlcNAc(b1-2)Man(a1-6)Man(b1-4)GlcNAc(b1-4)GlcNAc
# Summary of the method: as §1
# [8] = target: Gal(b1-4)GlcNAc(b1-2)Man(a1-6)[GlcNAc(b1-2)Man(a1-3)]Man(b1-4)GlcNAc(b1-4)GlcNAc
# Summary of the method: as §1
# [9] = target: Gal(b1-4)GlcNAc(b1-2)Man(a1-6)[Man(a1-3)]Man(b1-4)GlcNAc(b1-4)GlcNAc
# Summary of the method: as §1
# [10] = target: Gal(b1-4)GlcNAc(b1-2)[Gal(b1-4)GlcNAc(b1-4)]Man(a1-3)[Gal(b1-4)GlcNAc(b1-2)Man(a1-6)]Man(b1-4)GlcNAc(b1-4)GlcNAc
# Summary of the method: as §1
# [11] = target: Gal(b1-4)GlcNAc(b1-2)[Gal(b1-4)GlcNAc(b1-4)]Man(a1-3)[Gal(b1-4)GlcNAc(b1-2)[Gal(b1-4)GlcNAc(b1-6)]Man(a1-6)]Man(b1-4)GlcNAc(b1-4)GlcNAc
# Summary of the method: as §1
# [12] = target: Gal(b1-4)GlcNAc(b1-3)Gal(b1-3)GlcNAc
# Summary of the method: as §1
# [13] = target: Gal(b1-4)GlcNAc(b1-3)Gal(b1-4)Glc
# Summary of the method: as §1
# [14] = target: Gal(b1-4)GlcNAc(b1-3)Gal(b1-4)GlcNAc
# Summary of the method: as §1
# [15] = target: Gal(b1-4)GlcNAc(b1-3)Gal(b1-4)GlcNAc(b1-3)Gal(b1-4)GlcNAc
# Summary of the method: as §1
# [16] = target: Gal(b1-4)GlcNAc(b1-3)Gal(b1-4)[Fuc(a1-3)]GlcNAc(b1-3)Gal(b1-4)[Fuc(a1-3)]GlcNAc
# Summary of the method: as §1
# [17] = target: Gal(b1-4)GlcNAc(b1-3)GalNAc
# Summary of the method: as §1
# [18] = target: Gal(b1-4)GlcNAc(b1-3)[Gal(b1-4)GlcNAc(b1-6)]Gal(b1-4)GlcNAc
# Summary of the method: as §1
# [19] = target: Gal(b1-4)GlcNAc(b1-3)[Gal(b1-4)GlcNAc(b1-6)]GalNAc
# Summary of the method: as §1
# [20] = target: Gal(b1-4)GlcNAc(b1-3)[GlcNAc(b1-6)]Gal(b1-4)GlcNAc
# Summary of the method: as §1
# [21] = target: Gal(b1-4)GlcNAc(b1-6)Gal(b1-4)GlcNAc
# Summary of the method: as §1
# [22] = target: Gal(b1-4)GlcNAc(b1-6)GalNAc
# Summary of the method: as §1
# [23] = target: Gal(b1-4)GlcNAc(b1-6)[Gal(b1-3)]GalNAc
# Summary of the method: as §1
# [24] = target: Gal3S(b1-3)GalNAc
# Summary of the method: as §1
# [25] = target: Gal3S(b1-3)GlcNAc
# Summary of the method: as §1
# [26] = target: Gal3S(b1-3)[Fuc(a1-4)]GlcNAc
# Summary of the method: as §1
# [27] = target: Gal3S(b1-4)Glc
# Summary of the method: as §1
# [28] = target: Gal3S(b1-4)Glc6S
# Summary of the method: as §1
# [29] = target: Gal3S(b1-4)GlcNAc
# Summary of the method: as §1
# [30] = target: Gal3S(b1-4)GlcNAc6S
# Summary of the method: as §1
# [31] = target: Gal3S(b1-4)[Fuc(a1-3)]Glc
# Summary of the method: as §1
# [32] = target: Gal3S(b1-4)[Fuc(a1-3)]Glc6S
# Summary of the method: as §1
# [33] = target: Gal3S4S(b1-4)GlcNAc
# Summary of the method: as §1
# [34] = target: Gal3S6S(b1-4)GlcNAc
# Summary of the method: as §1
# [35] = target: Gal3S6S(b1-4)GlcNAc6S
# Summary of the method: as §1
# [36] = target: Gal4S(b1-4)GlcNAc
# Summary of the method: as §1
# [37] = target: Gal4S6S(b1-4)GlcNAc
# Summary of the method: as §1
# [38] = target: Gal6S(b1-4)Glc
# Summary of the method: as §1
# [39] = target: Gal6S(b1-4)Glc6S
# Summary of the method: as §1
# [40] = target: Gal6S(b1-4)GlcNAc
# Summary of the method: as §1
# [41] = target: Gal6S(b1-4)GlcNAc6S
# Summary of the method: as §1
# [42] = target: GalNAc(a1-3)Gal
# Summary of the method: as §1
# [43] = target: GalNAc(a1-3)GalNAc
# Summary of the method: as §1
# [44] = target: GalNAc(a1-3)GalNAc(a1-3)Gal(a1-4)Gal(b1-4)GlcNAc
# Summary of the method: as §1
# [45] = target: GalNAc(b1-3)Gal
# Summary of the method: as §1
binder,measurement,setting,value
B1,glycan array binding signal (z-score),[1],-0.262
same,glycan array binding signal (z-score),[2],-0.268
same,glycan array binding signal (z-score),[3],0.403
same,glycan array binding signal (z-score),[4],-0.269
same,glycan array binding signal (z-score),[5],-0.267
same,glycan array binding signal (z-score),[6],-0.269
same,glycan array binding signal (z-score),[7],-0.267
same,glycan array binding signal (z-score),[8],-0.266
same,glycan array binding signal (z-score),[9],-0.271
same,glycan array binding signal (z-score),[10],-0.21
same,glycan array binding signal (z-score),[11],1.1
same,glycan array binding signal (z-score),[12],2.47
same,glycan array binding signal (z-score),[13],1.53
same,glycan array binding signal (z-score),[14],3.99
same,glycan array binding signal (z-score),[15],5.22
same,glycan array binding signal (z-score),[16],-0.264
same,glycan array binding signal (z-score),[17],-0.267
same,glycan array binding signal (z-score),[18],0.064
same,glycan array binding signal (z-score),[19],-0.256
same,glycan array binding signal (z-score),[20],-0.266
same,glycan array binding signal (z-score),[21],-0.269
same,glycan array binding signal (z-score),[22],-0.265
same,glycan array binding signal (z-score),[23],-0.268
same,glycan array binding signal (z-score),[24],-0.267
same,glycan array binding signal (z-score),[25],-0.262
same,glycan array binding signal (z-score),[26],-0.27
same,glycan array binding signal (z-score),[27],-0.271
same,glycan array binding signal (z-score),[28],-0.271
same,glycan array binding signal (z-score),[29],-0.267
same,glycan array binding signal (z-score),[30],-0.264
same,glycan array binding signal (z-score),[31],-0.269
same,glycan array binding signal (z-score),[32],-0.265
same,glycan array binding signal (z-score),[33],-0.263
same,glycan array binding signal (z-score),[34],-0.272
same,glycan array binding signal (z-score),[35],-0.261
same,glycan array binding signal (z-score),[36],-0.268
same,glycan array binding signal (z-score),[37],-0.266
same,glycan array binding signal (z-score),[38],-0.27
same,glycan array binding signal (z-score),[39],-0.263
same,glycan array binding signal (z-score),[40],-0.265
same,glycan array binding signal (z-score),[41],-0.271
same,glycan array binding signal (z-score),[42],-0.27
same,glycan array binding signal (z-score),[43],-0.27
same,glycan array binding signal (z-score),[44],-0.268
same,glycan array binding signal (z-score),[45],-0.266
